Reference: publication PMC10017685 (Nature Communications, 2023)
Like-named read-outs stand apart in the source and are kept apart here.

Columns and labels:
S. aureus ATCC 33591 = type: cell-based, Staphylococcus aureus
Experimental: (§1) Fresh cultures were used in antimicrobial assay. […] Moreover MBC was evaluated. […] All experiments were conducted in triplicate.

E. coli ATCC 25922 = type: cell-based, Escherichia coli
Experimental: as §1

E. coli ATCC 43827 = type: cell-based, Escherichia coli
[1] = tested on: A. baumannii ATCC BAA 1605; type: cell-based, Acinetobacter baumannii; settings: triplicate; for A. baumannii ATCC BAA 1605 MIC: second experimental round, broth microdilution (CLSI), Mueller-Hinton Broth, 0.5 × 10^5 CFU/mL, 1-[…], 18 h at 37 °C; for A. baumannii ATCC BAA 1605 MBC: second round, MIC well and two higher concentrations seeded on agar plates, no visible colonies
Experimental: as §1

P. aeruginosa ATCC 9027 = type: cell-based, Pseudomonas aeruginosa; settings: triplicate; for P. aeruginosa ATCC 9027 MIC: second experimental round, broth microdilution (CLSI), Mueller-Hinton Broth, 0.5 × 10^5 CFU/mL, 1-[…], 18 h at 37 °C; for P. aeruginosa ATCC 9027 MBC: second round, MIC well and two higher concentrations seeded on agar plates, no visible colonies
Experimental: as §1

Sheep red blood cells = test: Hemolysis assay (HC50); type: cell-based; settings: for HC50 (µM/ml): sheep erythrocytes, recalculated from μg/mL values, estimated as in https://pubmed.ncbi.nlm.nih.gov/29307075/; for HC50: sheep red blood cells 4% (v/v) in PBS, peptides 1-[…], 60 min at 37 °C, hemoglobin release at 590 nm, 1% Triton-X 100 = 100% hemolysis, triplicate, HC50 by ic50.tk
[2] = second experimental round, broth microdilution (CLSI), Mueller-Hinton Broth, 0.5 × 10^5 CFU/mL, 1-[…], 18 h at 37 °C, triplicate
[3] = second round, MIC well and two higher concentrations seeded on agar plates, no visible colonies, triplicate

| SMILES | S. aureus ATCC 33591 MIC (S. aureus ATCC 33591; [2]) [µg/mL] | S. aureus ATCC 33591 MBC (S. aureus ATCC 33591; [3]) [µg/mL] | E. coli ATCC 25922 MIC (E. coli ATCC 25922; [2]) [µg/mL] | E. coli ATCC 25922 MBC (E. coli ATCC 25922; [3]) [µg/mL] | E. coli ATCC 43827 MIC (E. coli ATCC 43827; [2]) [µg/mL] | E. coli ATCC 43827 MBC (E. coli ATCC 43827; [3]) [µg/mL] | A. baumannii ATCC BAA 1605 MIC [1] [µg/mL] | A. baumannii ATCC BAA 1605 MBC [1] [µg/mL] | P. aeruginosa ATCC 9027 MIC (P. aeruginosa ATCC 9027) [µg/mL] | P. aeruginosa ATCC 9027 MBC (P. aeruginosa ATCC 9027) [µg/mL] | HC50 (µM/ml) (Sheep red blood cells) | HC50 (Sheep red blood cells) [µg/mL] | other results |
| --- | --- | --- | --- | --- | --- | --- | --- | --- | --- | --- | --- | --- | --- |
| CC[C@H](C)[C@H](NC(=O)[C@H](Cc1c[nH]c2ccccc12)NC(=O)[C@H](CCCNC(=N)N)NC(=O)[C@H](CC(C)C)NC(=O)[C@@H](N)CC(C)C)C(=O)N[C@@H](Cc1c[nH]c2ccccc12)C(=O)N[C@@H](CCCNC(=N)N)C(=O)N1CCC[C@H]1C(=O)N[C@@H](Cc1c[nH]c2ccccc12)C(=O)N[C@@H](CCCNC(=N)N)C(=O)N[C@@H](CCCNC(=N)N)C(N)=O [Centaxin] | 32 | 64 | 32 | 64 | 32 | 64 | 256 | 256 | 64 | 128 | >232 | >512 | S. aureus ATCC 33591 MBC (S. aureus ATCC 33591; Supplementary Data 5D/5E): 64 µg/mL; S. aureus ATCC 33591 MIC (S. aureus ATCC 33591; Supplementary Data 5D/5E): 32 µg/mL; E. coli ATCC 25922 MBC (E. coli ATCC 25922; Supplementary Data 5D/5E): 64 µg/mL; E. coli ATCC 25922 MIC (E. coli ATCC 25922; Supplementary Data 5D/5E): 32 µg/mL; E. coli ATCC 43827 MBC (E. coli ATCC 43827; Supplementary Data 5D/5E): 64 µg/mL; E. coli ATCC 43827 MIC (E. coli ATCC 43827; Supplementary Data 5D/5E): 32 µg/mL |
| CC[C@H](C)[C@H](NC(=O)[C@H](CC(C)C)NC(=O)[C@H](CCCNC(=N)N)NC(=O)CN)C(=O)N[C@@H](CCCCN)C(=O)N[C@@H](Cc1ccccc1)C(=O)N[C@H](C(=O)N[C@@H](CCCCN)C(=O)N[C@@H](CCCCN)C(=O)N[C@@H](C)C(=O)N[C@@H](Cc1c[nH]c2ccccc12)C(=O)N[C@@H](CCCNC(=N)N)C(=O)N[C@@H](CCCCN)C(=O)N[C@@H](Cc1ccccc1)C(=O)N[C@H](C(=O)N[C@@H](CCC(=O)O)C(=O)N[C@@H](CCCCN)C(=O)N[C@@H](Cc1ccccc1)C(=O)N[C@@H](C)C(=O)N[C@@H](CCCCN)C(N)=O)[C@@H](C)CC)[C@@H](C)CC [Olabogan] | 32 | 32 | 64 | 64 | 32 | 32 | 32 | 32 | 64 | 128 | 18 | 65 |  |
| CC[C@H](C)[C@H](N)C(=O)NCC(=O)N[C@@H](CCCCN)C(=O)N[C@@H](CCC(=O)O)C(=O)N[C@@H](Cc1ccccc1)C(=O)N[C@@H](CCCCN)C(=O)N[C@@H](CCCNC(=N)N)C(=O)N[C@H](C(=O)N[C@@H](Cc1c[nH]cn1)C(=O)N[C@@H](CCC(=O)O)C(=O)N[C@@H](CCCNC(=N)N)C(=O)N[C@H](C(=O)N[C@@H](CCCCN)C(=O)N[C@@H](CCCNC(=N)N)C(=O)N[C@@H](Cc1ccccc1)C(=O)N[C@@H](CC(C)C)C(=O)N[C@@H](CCCNC(=N)N)C(=O)N[C@@H](CCC(=O)O)C(=O)N[C@@H](CC(C)C)C(=O)N[C@@H](CC(C)C)C(=O)N[C@@H](CCCNC(=N)N)C(=O)N[C@@H](Cc1c[nH]cn1)C(=O)N[C@@H](CC(C)C)C(=O)N[C@@H](CCCNC(=N)N)C(N)=O)[C@@H](C)CC)[C@@H](C)CC [OP-145-TIII4] | 128 | 256 | 64 | 128 | 64 | 64 | 64 | 64 | 128 | 256 | >114 | >512 | S. aureus ATCC 33591 MBC (S. aureus ATCC 33591): 256 µg/mL; E. coli ATCC 25922 MBC (E. coli ATCC 25922): 128 µg/mL; E. coli ATCC 25922 MIC (E. coli ATCC 25922): 64 µg/mL; E. coli ATCC 43827 MBC (E. coli ATCC 43827): 64 µg/mL; E. coli ATCC 43827 MIC (E. coli ATCC 43827): 64 µg/mL |
